Source: PubChem BioAssay AID1466 (National Center for Advancing Translational Sciences (NCATS), 2008)
Out of some 200,000 compounds screened, about 10 (0.005%) were called active. The shares of active, inactive and inconclusive entries below differ from those in the screen. Calls follow the shape of the dose curve; as a rule, active = well fitted inhibition curve with a large enough effect; inconclusive = small, poorly fitted or top-dose-only effect, or effect the other way, or another doubt; inactive = no such curve, though single readings can be large or run the other way. Potencies beside an inconclusive call are fits to weak or partial responses and may not hold up.

biological target: Lysosomal alpha-glucosidase (Homo sapiens) (UniProt P10253); assay: qHTS Assay for Inhibitors of Human alpha-Glucosidase as a Potential Chaperone Treatment of Pompe Disease; settings: purified human GAA, 4-MU-alpha-glucoside fluorescence; activity change, negative = inhibition: at 76.9 µM (top of the series) unless noted;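 as to activity change, negative = inhibition: plate controls were uninhibited enzyme wells for no effect and no-enzyme background for full effect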
How it was run: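 Human alpha-glucosidase, 4 nM, pre-mixed with test compounds before 400 uM 4-methylumbelliferyl substrate; 20 min room temperature at pH 5.0. Fluorescence read after pH 10 stop; AC50 values from Hill-equation fits.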
Potency is read from the fitted curve at half-maximal effect; tags tell the direction and shape of the fitted curve.

Potency, inconclusive:
CN(C)CCCN(Cc1ccc2c(c1)OCO2)C(=O)NC1CCCCC1 35.5 µM [inhibitor, single point], Nc1c(S(=O)(=O)c2cccs2)c2nc3ccccc3nc2n1CC1CCCO1 (centres undefined) 31.6 µM [activator, partial curve], c1ccc2cc(OCc3nc4ccccc4[nH]3)ccc2c1 35.5 µM [inhibitor, single point], Cc1ccccc1NC(=O)CSc1nc(N)c(C#N)c(-c2cccs2)c1C#N 50.1 µM [activator, single point], Cc1ccc(O)c(NC(=O)c2noc3c2CCCCC3)c1 56.2 µM [inhibitor, single point], CCOC(=O)c1cnc2c(C)cccc2c1NCCc1ccc(OC)c(OC)c1 50.1 µM [inhibitor, single point], COc1ccc2[nH]c(C)c(CCN3C(=O)C4CC=CCC4C3=O)c2c1 (centres undefined) 0.891 µM [inhibitor, single point], CN(C)/C=N/c1nc2nccc(-c3ccc(Cl)cc3)n2n1 35.5 µM [activator, partial curve], O=S(=O)(c1ccc2c(c1)OCCO2)N1CCN(Cc2ccc3c(c2)OCO3)CC1 39.8 µM [inhibitor, partial curve, poor fit], NC(N)=Nc1nc2ccc(Br)cc2c(=O)[nH]1 14.1 µM [inhibitor, partial curve], S=c1[nH]nc(-c2ccc(Br)cc2)n1Cc1ccccc1 11.2 µM [inhibitor, full curve], Cc1ccc(NC(=O)COC(=O)CNC(=O)c2ccc3ccccc3c2)c([N+](=O)[O-])c1 3.16 µM [inhibitor, partial curve, poor fit], CC1=CC=CC2=NC(=O)CC(C)(C(=O)O)N12 (centres undefined) 22.4 µM [activator, partial curve], Nc1cc2sc(-c3ccc(C(=O)O)cc3)nc2cc1Cl 39.8 µM [activator, single point], CCOC(=O)C1=NN(c2ccccc2)C2C(=O)N(c3ccccc3OC)C(=O)C12 (centres undefined) 44.7 µM [inhibitor, partial curve], CCOC(=O)N1CCN(C2CC(=O)N(c3ccc(Oc4ccccc4)cc3)C2=O)CC1 (centres undefined) 56.2 µM [inhibitor, single point], Cc1cc(N2CCN(c3cccc(C(F)(F)F)c3)CC2)n2ncnc2n1 50.1 µM [inhibitor, single point], NNC(=O)c1cc(-c2cccs2)nc2ccccc12 35.5 µM [activator, single point], CCCn1c(=NC(=O)c2ccco2)c(C(=O)OCC)cc2c(=O)n3ccccc3nc21 50.1 µM [activator, single point], COc1ccc2c(c1)C(=O)CC(c1ccccc1F)O2 (centres undefined) 1.58 µM [activator, full curve, poor fit], Cc1ccc(-c2nc3ccccc3[nH]2)cc1NC(=S)NC(=O)c1ccccc1Br 50.1 µM [inhibitor, single point], Cc1ccc(C(=O)Nc2ccc(Cc3ccncc3)cc2)cc1[N+](=O)[O-] 1.58 µM [inhibitor, full curve, poor fit], CC(C)CC(COCc1ccc(Cl)cc1)N1CCN(C(=O)c2ccc(C(F)(F)F)cc2)CCC1=O (centres undefined) 11.2 µM [inhibitor, single point], CC(=O)c1cc2cc(O)ccc2o1 35.5 µM [activator, partial curve], COc1ccc(C2C=C(c3ccc(C)cc3)Nc3ncnn32)cc1 (centres undefined) 50.1 µM [activator, single point], COc1cccc(/C=C2\SC(=S)NC2=O)c1OS(=O)(=O)c1ccc(NC(C)=O)cc1 35.5 µM [inhibitor, single point], CCOC(=O)C1(Cc2ccccc2Cl)CCN(S(=O)(=O)N(C)C)CC1 22.4 µM [inhibitor, partial curve], CN=c1scc(-c2cccs2)n1/N=C/c1ccccc1O 11.2 µM [inhibitor, single point], Cc1ccc(C2(CCNS(=O)(=O)c3ccc(C)cc3)CCOC(C(C)C)C2)cc1 (centres undefined) 31.6 µM [inhibitor, single point], COc1ccc(C(=O)c2nc3c(n2O)CCCCC3)cc1 31.6 µM [inhibitor, partial curve, poor fit], COc1ccc(S(=O)(=O)N2CCC(CN3C(=O)c4cccc5cccc(c45)C3=O)CC2)cc1 50.1 µM [activator, single point], CCn1cc(CNC(=O)c2cc(-c3cc(OC)ccc3OC)nc3ccccc23)c(C)n1 50.1 µM [inhibitor, single point], O=C1c2ccccc2C(=O)N1CCCSc1nc2ccccc2o1 44.7 µM [inhibitor, partial curve], Nc1cc(Cl)ccc1C(=O)OCC(=O)NC(=O)NCc1ccccc1 39.8 µM [activator, single point], O=c1cc(CO)oc(C(Nc2ccccn2)c2cccc(F)c2)c1O (centres undefined) 12.6 µM [inhibitor, single point], Cc1ccc(N=C2SC(C(=O)Nc3ccc(OC(F)(F)F)cc3)C(N)=C2C(=O)Nc2c(C)cc(C)cc2C)cc1 (centres undefined) 11.2 µM [inhibitor, single point], Cc1cc2c(cc1C)CSC(c1ccc(O)cc1)SC2 0.158 µM [inhibitor, full curve, poor fit], C=C(C)COc1ccc(-c2n[nH]c(C)c2-c2ccc(OC)cc2)c(O)c1 39.8 µM [inhibitor, partial curve], CC(C)NS(=O)(=O)c1ccc(CCC(=O)N2CCc3ccccc3C2)cc1 44.7 µM [inhibitor, single point], Cc1oc(C(=O)Nc2ccc(C(=O)O)cc2)cc1COc1ccccc1 31.6 µM [inhibitor, single point], COc1ccc2[nH]c(=O)cc(C(=O)O)c2c1 39.8 µM [activator, partial curve, poor fit], CCOC(=O)CN1C(=O)SC(Nc2ccc(C)cc2)C1=O (centres undefined) 1.41 µM [inhibitor, full curve], O=C(O)CCC(=O)N1CCc2cc(S(=O)(=O)Nc3ccc4c(c3)OCCO4)ccc21 50.1 µM [inhibitor, single point], COc1ccccc1-n1c(SCC(=O)O)nnc1-c1ccc(S(=O)(=O)N2CCCCC2)cc1 14.1 µM [inhibitor, partial curve, poor fit], C/C(CCc1ccc2c(c1)OCO2)=N\N=C1\NC(=O)CC(C(=O)Nc2ccc(Cl)cc2)S1 (centres undefined) 0.447 µM [activator, full curve, poor fit], CC(C)(C)Oc1ncc(Br)c(OC(C)(C)C)n1 12.6 µM [inhibitor, single point], CN(CC(=O)Nc1ccc(Cl)c(Cl)c1)C(=O)/C=C/c1ccc(F)cc1 10 µM [inhibitor, single point], CN1CCC/C1=C/C=C1\SC(=S)NC1=O 20 µM [inhibitor, partial curve]

Activity change, negative = inhibition, inconclusive:
CCCCN1C(=O)C2C(C(=O)Nc3cccc(OC)c3)C3C=CC2(O3)C1C(=O)NC1CCCCC1C (centres undefined) -15.6% [inhibitor], O=C1CC(c2ccccc2)CC(O)=C1C=Nc1ccccc1O (centres undefined) 10.9% [activator], COC(=O)c1ccc(C(=O)OC)c(NC(=S)N2CCOCC2)c1 26.7% [activator], COc1ccc(OC)c(/C=C/C(=O)OCC(=O)c2c(N)n(C)c(=O)n(C)c2=O)c1 40.2% [activator], O=C(NCc1cccc(Cl)c1)c1ccc2nc[nH]c2c1 -15.1% [inhibitor], COCCCNC(=O)c1cc2c(=O)n3cccc(C)c3nc2n(C(C)C)c1=N 17.9% [activator], CCc1nnc(NC(=O)CSc2nnc(-c3cccnc3)n2CC)s1 -16.1% [inhibitor], COc1cccc(/C=N/Nc2nccnc2Cl)c1O 3.31% [activator], O=C1C(Nc2cccc(O)c2)=C(N2CCCCC2)C(=O)c2ccccc21 17% [activator]

Activity change, negative = inhibition, inactive:
C1CCc2nnc(-c3nnc4n3CCCCC4)n2CC1 -1.23%, COc1cccc(NC(=O)C(Sc2nnnn2C)c2ccccc2)c1 (centres undefined) -3.14%, COCCn1c(NC(=S)NC(=O)C2CC2)cc(=O)[nH]c1=O 5.71%, Cc1cccc(-n2c3nc(=O)[nH]c(=O)c-3cc3cc([N+](=O)[O-])ccc32)c1 -2.66%, Cc1cccc(C)c1NC(=O)CSCC(=O)c1ccc(O)c(O)c1 -19.6%, Cc1c(N=CC=Nc2c(C)n(C)n(-c3ccccc3)c2=O)c(=O)n(-c2ccccc2)n1C 0.932%, CCOc1ncccc1C(=O)NCCN1C(=O)S/C(=C/c2cccs2)C1=O -3.24%
